A collection of fitness landscapes (doi:10.1016/j.celrep.2020.107928)
In all, about 81,000 sequences were measured (“one-hybrid fitness for binding parS DNA”: median about -0.17, highest 2% from about 0.51 on). Some of the results follow.

B1: Caulobacter ParB omega fusion; a variant is named by its letters at X, in order, B8GW30 (parent)
chain: MESVVVGEPGMSEGRRGLGRGLSALLGEVDAAPAQAPGEQLGGSREAPIEILQRNPDQPRRTFREEDLEDLSNSIREKGVLQPILVRPSPDTAGEYQIVAGERAWRAAQRAGLKTVPIMVRELDDLAVLEIGIIENVQRADLNVLEEALSYKVLMEKFERTQENIAQTIGKSXSHVANXMRLLXLPDEVQSYLVSGELTAXHARAIAAAADPVALAKQIIEGGLSVRETEALARKAPNLSAGKSKGGRPPRVKDTDTQALESDLSSVLGLDVSIDHRGSTGTLTITYATLEQLDDLCNRLTRGI

Variants of: B1
Test: one-hybrid fitness for binding parS DNA (scaled: cognate 1, non-cognate 0); higher = stronger binding
Conditions: with parS DNA site
Summary of the method: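 In E. coli USO, a HIS3 reporter with its site placed 19 bp from the promoter was used to select Caulobacter ParB variants randomised at four specificity codons. Growth lasted 48 hours at 37°C on histidine-free M9 containing 0.1 mM IPTG and 5 mM 3-AT. Fitness was taken as the log change in variant-to-wild-type read ratio from Illumina sequencing of pre- and post-selection plasmids, rescaled between the non-cognate and cognate sites.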

Row | Variant | one-hybrid fitness for binding parS DNA
1 | KKAG | ≤ 0.2
2 | VTSY | ≤ 0.2
3 | SYYK | ≤ 0.2
4 | WRYY | ≤ 0.2
5 | AFST | ≤ 0.2
6 | VLRA | ≤ 0.2
7 | FCMR | ≤ 0.2
8 | HVGV | ≤ 0.2
9 | AKEI | ≤ 0.2
10 | SVVL | ≤ 0.2
11 | HKYK | ≤ 0.2
12 | HEHL | ≤ 0.2
13 | SMEC | ≤ 0.2
14 | HVFS | ≤ 0.2
15 | QTTF | ≤ 0.2
16 | DTQC | ≤ 0.2
17 | RNEP | ≤ 0.2
18 | WPNN | ≤ 0.2
19 | TYVM | ≤ 0.2
20 | GNCM | ≤ 0.2
21 | PNYH | ≤ 0.2
22 | PNLF | ≤ 0.2
23 | KWLM | ≤ 0.2
24 | AQKN | ≤ 0.2

Row | Variant | one-hybrid fitness for binding parS DNA
25 | QTRW | ≤ 0.2
26 | TLHY | ≤ 0.2
27 | IRPS | ≤ 0.2
28 | LASI | ≤ 0.2
29 | GDSG | ≤ 0.2
30 | ASWC | ≤ 0.2
31 | CKTK | ≤ 0.2
32 | AGTV | ≤ 0.2
33 | FTVV | ≤ 0.2
34 | RNNQ | ≤ 0.2
35 | QPRN | ≤ 0.2
36 | TMDR | ≤ 0.2
37 | MICS | ≤ 0.2
38 | RCNI | ≤ 0.2
39 | GEYF | ≤ 0.2
40 | LDWC | ≤ 0.2
41 | QMPN | ≤ 0.2
42 | RCLE | 0.214
43 | LPWR | ≤ 0.2
44 | RHTF | ≤ 0.2
45 | QEYG | ≤ 0.2
46 | RTFG | 1.01
47 | KVHS | ≤ 0.2
48 | FSRS | ≤ 0.2

Row | Variant | one-hybrid fitness for binding parS DNA
49 | QIMW | ≤ 0.2
50 | HSGC | ≤ 0.2
51 | GRIC | ≤ 0.2
52 | LMHM | ≤ 0.2
53 | AHSS | ≤ 0.2
54 | YFHT | ≤ 0.2
55 | DKRV | ≤ 0.2
56 | NHQC | ≤ 0.2
57 | QRAR | ≤ 0.2
58 | IQIS | ≤ 0.2
59 | TFHM | ≤ 0.2
60 | TVDA | ≤ 0.2
61 | ESFG | ≤ 0.2
62 | CAPN | ≤ 0.2
63 | ANQD | ≤ 0.2
64 | GQIV | ≤ 0.2
65 | RGLL | ≤ 0.2
66 | KTFG | ≤ 0.2
67 | GYPL | ≤ 0.2
68 | AKLL | ≤ 0.2
69 | RMTH | 0.218
70 | CIMY | ≤ 0.2
71 | NIWW | ≤ 0.2
72 | WASN | ≤ 0.2

Row | Variant | one-hybrid fitness for binding parS DNA
73 | GNPF | ≤ 0.2
74 | CAAL | ≤ 0.2
75 | PLEV | ≤ 0.2
76 | RGAD | ≤ 0.2
77 | AEYS | ≤ 0.2
78 | ANKY | ≤ 0.2
79 | RGCI | ≤ 0.2
80 | QVAQ | ≤ 0.2
81 | DKHD | ≤ 0.2
82 | QFEN | ≤ 0.2
83 | SAQI | ≤ 0.2
84 | QEAI | ≤ 0.2
85 | HAAK | ≤ 0.2
86 | TARM | ≤ 0.2
87 | YFKT | ≤ 0.2
88 | FGHG | ≤ 0.2
89 | GGWK | ≤ 0.2
90 | RISY | 0.477
91 | GSGA | ≤ 0.2
92 | HADG | ≤ 0.2
93 | SDHC | ≤ 0.2
94 | SAYY | ≤ 0.2
95 | RAQY | 0.469
96 | AWCV | ≤ 0.2

Row | Variant | one-hybrid fitness for binding parS DNA
97 | HQNY | ≤ 0.2
98 | ERDG | ≤ 0.2
99 | CRFC | ≤ 0.2
100 | RVNP | ≤ 0.2
101 | YYFS | ≤ 0.2
102 | VKNY | ≤ 0.2
103 | IRRI | ≤ 0.2
104 | GAQV | ≤ 0.2
105 | REKV | ≤ 0.2
106 | TFNF | ≤ 0.2
107 | PPPV | ≤ 0.2
108 | CDKT | ≤ 0.2
109 | VNTV | ≤ 0.2
110 | ASSQ | ≤ 0.2
111 | PECN | ≤ 0.2
112 | LCYF | ≤ 0.2
113 | GESL | ≤ 0.2
114 | SFHA | ≤ 0.2
115 | SFKH | ≤ 0.2
116 | GTPI | ≤ 0.2
117 | QYRN | ≤ 0.2
118 | CVNE | ≤ 0.2
119 | HYMC | ≤ 0.2
120 | LATH | ≤ 0.2

Row | Variant | one-hybrid fitness for binding parS DNA
121 | HILA | ≤ 0.2
122 | GSCP | ≤ 0.2
123 | PTAE | ≤ 0.2
124 | CRIY | ≤ 0.2
125 | TRSW | ≤ 0.2
126 | AKTG | ≤ 0.2
127 | ARAR | ≤ 0.2
128 | LMLR | ≤ 0.2
129 | AGRL | ≤ 0.2
130 | FITF | ≤ 0.2
131 | TLRL | ≤ 0.2
132 | LHIG | ≤ 0.2
133 | LNEL | ≤ 0.2
134 | FYLW | ≤ 0.2
135 | YNIS | ≤ 0.2
136 | QMPW | ≤ 0.2
137 | QHNH | ≤ 0.2
138 | NNYS | ≤ 0.2
139 | TEVV | ≤ 0.2
140 | TMWI | ≤ 0.2
141 | RSCH | 0.223
142 | TFYR | ≤ 0.2
143 | QDHR | ≤ 0.2
144 | HIDC | ≤ 0.2

Row | Variant | one-hybrid fitness for binding parS DNA
145 | DTSA | ≤ 0.2
146 | LPQW | ≤ 0.2
147 | KNKW | ≤ 0.2
148 | HWSQ | ≤ 0.2
149 | IRQK | ≤ 0.2
150 | KKWC | ≤ 0.2
151 | TVIW | ≤ 0.2
152 | WWVS | ≤ 0.2
153 | QCYL | ≤ 0.2
154 | RIRN | 0.395
155 | QDKL | ≤ 0.2
156 | FPCS | ≤ 0.2
157 | TQYN | ≤ 0.2
158 | LATE | ≤ 0.2
159 | ANML | ≤ 0.2
160 | RQHQ | ≤ 0.2
161 | QNNG | ≤ 0.2
162 | QTHV | ≤ 0.2
163 | APDT | ≤ 0.2
164 | WRGH | ≤ 0.2
165 | TLDM | ≤ 0.2
166 | RVET | 0.691
167 | ESKR | ≤ 0.2
168 | SWSR | ≤ 0.2

Row | Variant | one-hybrid fitness for binding parS DNA
169 | HSAA | ≤ 0.2
170 | FRST | ≤ 0.2
171 | TNVL | ≤ 0.2
172 | LTRF | ≤ 0.2
173 | FAAP | ≤ 0.2
174 | DPEW | ≤ 0.2
175 | ECDS | ≤ 0.2
176 | PYSG | ≤ 0.2
177 | TLIT | ≤ 0.2
178 | THHF | ≤ 0.2
179 | VFNR | ≤ 0.2
180 | HQNK | ≤ 0.2
181 | QVAF | ≤ 0.2
182 | ASHR | ≤ 0.2
183 | HTTE | ≤ 0.2
184 | LIIS | ≤ 0.2
185 | NKSI | ≤ 0.2
186 | NPID | ≤ 0.2
187 | IALI | ≤ 0.2
188 | EAAS | ≤ 0.2
189 | GREH | ≤ 0.2
190 | MFAG | ≤ 0.2
191 | PFYI | ≤ 0.2
192 | LWHM | ≤ 0.2

Row | Variant | one-hybrid fitness for binding parS DNA
193 | DCYN | ≤ 0.2
194 | VDDQ | ≤ 0.2
195 | NSMQ | ≤ 0.2
196 | LYYY | ≤ 0.2
197 | CPQV | ≤ 0.2
198 | GFRA | ≤ 0.2
199 | RLVP | ≤ 0.2
200 | SHGS | ≤ 0.2
201 | KTRH | ≤ 0.2
202 | LAIV | ≤ 0.2
203 | SYMR | ≤ 0.2
204 | HWQS | ≤ 0.2
205 | TRTG | ≤ 0.2
206 | CSPV | ≤ 0.2
207 | IPWE | ≤ 0.2
208 | HKWR | ≤ 0.2
209 | WCGY | ≤ 0.2
210 | SITL | ≤ 0.2
211 | RIEV | ≤ 0.2
212 | QMPS | ≤ 0.2
213 | IQGG | ≤ 0.2
214 | YYIG | ≤ 0.2
215 | RAQH | 0.211
216 | PQEI | ≤ 0.2

Row | Variant | one-hybrid fitness for binding parS DNA
217 | ELSP | ≤ 0.2
218 | LWYP | ≤ 0.2
219 | QFAM | ≤ 0.2
220 | QYIV | ≤ 0.2
221 | TQTT | ≤ 0.2
222 | PLCV | ≤ 0.2
223 | SMCY | ≤ 0.2
224 | LMTG | ≤ 0.2
225 | SFNW | ≤ 0.2
226 | GPCL | ≤ 0.2
227 | EMHS | ≤ 0.2
228 | TRTQ | ≤ 0.2
229 | RIAN | 0.432
230 | QARK | ≤ 0.2
231 | SCDR | ≤ 0.2
232 | DNHR | ≤ 0.2
233 | GMRM | ≤ 0.2
234 | NKTS | ≤ 0.2
235 | TYKV | ≤ 0.2
236 | RCVE | ≤ 0.2
237 | DRSI | ≤ 0.2
238 | VNCS | ≤ 0.2
239 | HNNL | ≤ 0.2
240 | FYKL | ≤ 0.2

Row | Variant | one-hybrid fitness for binding parS DNA
241 | REPT | ≤ 0.2
242 | QCIV | ≤ 0.2
243 | DVFN | ≤ 0.2
244 | WARM | ≤ 0.2
245 | QKSD | ≤ 0.2
246 | HSKE | ≤ 0.2
247 | IRES | ≤ 0.2
248 | FDIR | ≤ 0.2
249 | PWLK | ≤ 0.2
250 | VCQG | ≤ 0.2
251 | YATI | ≤ 0.2
252 | CLQR | ≤ 0.2
253 | MSNN | ≤ 0.2
254 | YTVW | ≤ 0.2
255 | LGNR | ≤ 0.2
256 | TPDW | ≤ 0.2
257 | KCTV | ≤ 0.2
258 | HIYA | ≤ 0.2
259 | HTGR | ≤ 0.2
260 | YACC | ≤ 0.2
261 | QRPP | ≤ 0.2
262 | FDRR | ≤ 0.2
263 | GLLR | ≤ 0.2
264 | CNSS | ≤ 0.2

Row | Variant | one-hybrid fitness for binding parS DNA
265 | GYWG | ≤ 0.2
266 | MSLL | ≤ 0.2
267 | QQAR | ≤ 0.2
268 | WALC | ≤ 0.2
269 | WGHS | ≤ 0.2
270 | QSKC | ≤ 0.2
271 | TNVR | ≤ 0.2
272 | ANKM | ≤ 0.2
273 | TRNF | ≤ 0.2
274 | EAYR | ≤ 0.2
275 | CATI | ≤ 0.2
276 | NMYI | ≤ 0.2
277 | RLMN | 0.459
278 | WRRA | ≤ 0.2
279 | ERKV | ≤ 0.2
280 | LKQR | ≤ 0.2
281 | MGTG | ≤ 0.2
282 | TCYK | ≤ 0.2
283 | MKFT | ≤ 0.2
284 | WTHP | ≤ 0.2
285 | DPTI | ≤ 0.2
286 | QPWY | ≤ 0.2
287 | DPVG | ≤ 0.2
288 | FRLR | ≤ 0.2

Row | Variant | one-hybrid fitness for binding parS DNA
289 | RSWP | ≤ 0.2
290 | VTSK | ≤ 0.2
291 | NVKQ | 0.369
292 | VMGL | ≤ 0.2
293 | FGGC | ≤ 0.2
294 | WSRG | ≤ 0.2
295 | LLRK | ≤ 0.2
296 | AYPD | ≤ 0.2
297 | TGTE | ≤ 0.2
298 | QTIH | ≤ 0.2
299 | GCAA | ≤ 0.2
300 | EAEG | ≤ 0.2
301 | CPGT | ≤ 0.2
302 | IFHS | ≤ 0.2
303 | DAQW | ≤ 0.2
304 | PPLD | ≤ 0.2
305 | IATE | ≤ 0.2
306 | DHHV | ≤ 0.2
